# The list shows a part of the results. Sequences were assembled here from the parent chain. Values near 0.05 are background.
# B1: TEV protease; numbered along this chain (parent)
# chain: MGESLFKGPRDYNPISSSICHLTNESDGHTTSLYGIGFGPFIITNKHLFRRNNGTLVVQSLHGVFKVKDTTTLQQHLVDGRDMIIIRMPKDFPPFPQKLKFREPQREERICLVTTNFQTKSMSSMVSDTSCTFPSGDGIFWKHWIQTKDGQCGSPLVSTRDGFIVGIHSASNFTNTNNYFTSVPKNFMELLTNQEAQQWVSGWRLNADSVLWGGHKVFMVKPEEPFQPVKEATQL
# Variants of: B1
# Assay: raw area under fraction-flipped curve 0-4 h after induction (AUC4h, not background-subtracted), DNA-recorder readout of cleavage of the substrate (dimensionless); higher = more cleavage of the substrate by the protease variant
# Conditions: temperature: 34 °C; time window: 0-4 h after rhamnose induction
# Description: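 In vivo DNA recorder in E. coli TOP10(DE3) ΔrhaA at 34 °C. Each TEVp single-site mutant (parent TEVp 0) is paired with a single-site variant of the 7-mer TEVs (canonical ENLYFQ|S). The substrate sits between flexible linkers in a Bxb1-sfGFP-TEVs-SsrA fusion, so cleavage stabilises Bxb1 and speeds flipping of a recombination array, read by NGS. The value is the raw area under the fraction-flipped curve over 0-4 h after rhamnose induction (AUC4h), with ≥20 reads per time point. It is not background-subtracted; inactive controls average about 0.047.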
# 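Also: Bxb1 expression induced with 0.2% (w/v) L-rhamnose at OD600 near 0.5, cultures sampled hourly, flipped fraction per protease–substrate barcode pair counted by paired-end Illumina sequencing.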
variant,measurement,value
W141G,area with substrate ENLYFQA,0.0482
same,area with substrate ENLYFQC,0.0478
same,area with substrate ENLYFQD,0.0514
same,area with substrate ENLYFQG,0.0603
same,area with substrate ENLYFQH,0.0442
same,area with substrate ENLYFQI,0.0497
same,area with substrate ENLYFQK,0.0986
same,area with substrate ENLYFQL,0.056
same,area with substrate ENLYFQM,0.0417
same,area with substrate ENLYFQN,0.0704
same,area with substrate ENLYFQP,0.0538
same,area with substrate ENLYFQR,0.0532
same,area with substrate ENLYFQS,0.0575
same,area with substrate ENLYFQT,0.052
same,area with substrate ENLYFQW,0.0516
same,area with substrate ENLYFQY,0.0774
V67M,area with substrate ENLYFQA,0.0915
same,area with substrate ENLYFQD,0.0663
same,area with substrate ENLYFQE,0.0584
same,area with substrate ENLYFQG,0.08
same,area with substrate ENLYFQI,0.0551
same,area with substrate ENLYFQL,0.0496
same,area with substrate ENLYFQM,0.0759
same,area with substrate ENLYFQN,0.0707
same,area with substrate ENLYFQR,0.0579
same,area with substrate ENLYFQS,0.0878
same,area with substrate ENLYFQT,0.0661
same,area with substrate ENLYFQW,0.0726
D69C,area with substrate ENLYFQA,0.0829
same,area with substrate ENLYFQC,0.0977
same,area with substrate ENLYFQD,0.0608
same,area with substrate ENLYFQE,0.0727
same,area with substrate ENLYFQF,0.0578
same,area with substrate ENLYFQH,0.0705
same,area with substrate ENLYFQL,0.0622
same,area with substrate ENLYFQM,0.0719
same,area with substrate ENLYFQN,0.0787
same,area with substrate ENLYFQP,0.0593
same,area with substrate ENLYFQR,0.0382
same,area with substrate ENLYFQS,0.0907
same,area with substrate ENLYFQV,0.0563
same,area with substrate ENLYFQW,0.0218
same,area with substrate ENLYFQY,0.0678
P155C,area with substrate ENLYFQA,0.0982
same,area with substrate ENLYFQF,0.0795
same,area with substrate ENLYFQG,0.0873
same,area with substrate ENLYFQH,0.0762
same,area with substrate ENLYFQI,0.0269
same,area with substrate ENLYFQK,0.0619
same,area with substrate ENLYFQL,0.0525
same,area with substrate ENLYFQR,0.0585
same,area with substrate ENLYFQS,0.0847
same,area with substrate ENLYFQT,0.0583
K68L,area with substrate ENLYFQA,0.102
same,area with substrate ENLYFQC,0.111
same,area with substrate ENLYFQE,0.0565
same,area with substrate ENLYFQF,0.0657
same,area with substrate ENLYFQG,0.0879
same,area with substrate ENLYFQH,0.0637
same,area with substrate ENLYFQI,0.0535
same,area with substrate ENLYFQK,0.0596
same,area with substrate ENLYFQL,0.0507
same,area with substrate ENLYFQN,0.0748
same,area with substrate ENLYFQP,0.0479
same,area with substrate ENLYFQQ,0.0745
same,area with substrate ENLYFQR,0.0602
same,area with substrate ENLYFQS,0.0968
same,area with substrate ENLYFQV,0.0656
same,area with substrate ENLYFQW,0.0534
same,area with substrate ENLYFQY,0.0742
D137C,area with substrate ENLYFQA,0.0987
same,area with substrate ENLYFQC,0.099
same,area with substrate ENLYFQF,0.0643
same,area with substrate ENLYFQG,0.04
same,area with substrate ENLYFQI,0.0694
same,area with substrate ENLYFQK,0.0758
same,area with substrate ENLYFQL,0.0589
same,area with substrate ENLYFQM,0.0789
same,area with substrate ENLYFQR,0.0485
same,area with substrate ENLYFQS,0.0981
same,area with substrate ENLYFQV,0.0619
same,area with substrate ENLYFQW,0.054
T30G,area with substrate ENLYFQA,0.0811
same,area with substrate ENLYFQC,0.109
same,area with substrate ENLYFQF,0.0628
same,area with substrate ENLYFQG,0.15
same,area with substrate ENLYFQI,0.0336
same,area with substrate ENLYFQK,0.0871
same,area with substrate ENLYFQL,0.0561
same,area with substrate ENLYFQM,0.0882
same,area with substrate ENLYFQN,0.0573
same,area with substrate ENLYFQR,0.0528
same,area with substrate ENLYFQS,0.0993
same,area with substrate ENLYFQT,0.0623
same,area with substrate ENLYFQV,0.0495
same,area with substrate ENLYFQW,0.0594
same,area with substrate ENLYFQY,0.064
T114Q,area with substrate ENLYFQA,0.143
same,area with substrate ENLYFQC,0.105
same,area with substrate ENLYFQG,0.113
same,area with substrate ENLYFQI,0.0577
same,area with substrate ENLYFQK,0.064
same,area with substrate ENLYFQL,0.0727
same,area with substrate ENLYFQM,0.0994
same,area with substrate ENLYFQN,0.0758
same,area with substrate ENLYFQQ,0.0745
same,area with substrate ENLYFQR,0.0519
same,area with substrate ENLYFQS,0.11
same,area with substrate ENLYFQT,0.075
same,area with substrate ENLYFQV,0.0584
same,area with substrate ENLYFQY,0.0709
F41V,area with substrate ENLYFQA,0.103
same,area with substrate ENLYFQC,0.11
same,area with substrate ENLYFQG,0.0998
same,area with substrate ENLYFQH,0.0812
same,area with substrate ENLYFQI,0.0763
same,area with substrate ENLYFQK,0.0628
same,area with substrate ENLYFQL,0.0664
same,area with substrate ENLYFQM,0.0588
same,area with substrate ENLYFQP,0.0665
same,area with substrate ENLYFQQ,0.0674
same,area with substrate ENLYFQR,0.0612
same,area with substrate ENLYFQS,0.0957
same,area with substrate ENLYFQT,0.0566
same,area with substrate ENLYFQV,0.0549
same,area with substrate ENLYFQW,0.0596
same,area with substrate ENLYFQY,0.0579
S124E,area with substrate ENLYFQA,0.0918
same,area with substrate ENLYFQC,0.111
same,area with substrate ENLYFQD,0.0824
same,area with substrate ENLYFQG,0.0793
same,area with substrate ENLYFQI,0.0594
same,area with substrate ENLYFQK,0.0622
same,area with substrate ENLYFQM,0.0837
same,area with substrate ENLYFQN,0.0735
same,area with substrate ENLYFQR,0.0585
same,area with substrate ENLYFQS,0.0926
same,area with substrate ENLYFQW,0.06
Q227T,area with substrate ENLYFQA,0.117
same,area with substrate ENLYFQC,0.0667
same,area with substrate ENLYFQG,0.0901
same,area with substrate ENLYFQK,0.0587
same,area with substrate ENLYFQM,0.0974
same,area with substrate ENLYFQN,0.0802
same,area with substrate ENLYFQQ,0.0779
same,area with substrate ENLYFQR,0.0635
same,area with substrate ENLYFQS,0.104
same,area with substrate ENLYFQT,0.0639
S17M,area with substrate ENLYFQA,0.103
same,area with substrate ENLYFQC,0.132
same,area with substrate ENLYFQD,0.0757
same,area with substrate ENLYFQE,0.0219
same,area with substrate ENLYFQF,0.0771
same,area with substrate ENLYFQG,0.0801
same,area with substrate ENLYFQH,0.0658
same,area with substrate ENLYFQI,0.055
same,area with substrate ENLYFQK,0.0568
same,area with substrate ENLYFQL,0.0651
same,area with substrate ENLYFQM,0.101
same,area with substrate ENLYFQN,0.0877
same,area with substrate ENLYFQP,0.0642
same,area with substrate ENLYFQQ,0.0686
same,area with substrate ENLYFQR,0.0553
same,area with substrate ENLYFQS,0.104
same,area with substrate ENLYFQV,0.0589
same,area with substrate ENLYFQW,0.0681
same,area with substrate ENLYFQY,0.0745

# — the supplement of paper PMC12217912
